Measurements as given in the supplement of paper PMC10126150.
Sequences with one replicate were seen in a single cluster, so their values are uncertain.

Test system: ATP
Assay: switch fluorescence ratio, 500 uM ATP over buffer (Cy3 cluster intensity, sum of 5 cycles each) (fold (ratio)); higher = stronger signal-on switching upon ATP binding; sequences stand for … in TCGTCGGCAGCGTCAGATGTGTATAAGAGACAGTTTTTTTTTTTTTTTTTTTTTTTTT…TC
Details: aptamer strand: ATP DNA aptamer (quencher-CACCTGGGGGAGTATTGCGGAGGAAGG + anchor), 100 nM annealed; ATP concentration: 500 uM; one replicate
Summary of the method: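 Clusters with intensities outside 100-1000 RFU were excluded. The remaining Cy3-labelled switching-strand clusters on a modified Illumina MiSeq flow-cell had been annealed to 100 nM quencher-labelled ATP aptamer and imaged in selection buffer, then after 15 min with 500 uM ATP at 22 °C, for five cycles separated by NaOH stripping and re-annealing. The fluorescence ratio, averaged per switch-domain sequence, is each cluster's summed target-cycle Cy3 intensity over its summed buffer-cycle Cy3 intensity.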
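Further: ATP exposure 15 min at 22 °C before imaging.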

Row | Sequence | switch fluorescence ratio
1 | TCATACTGAG | 1.04
2 | ACCACCGTGA | 1.24
3 | TTTTCCACAA | 1.02
4 | CGGACTAGTG | 0.973
5 | ACATACAAGC | 1.32
6 | CATAATGAT | 1
7 | CCGCGCGATG | 3.5
8 | CCTGCATCGA | 1.19
9 | AGCAAATCAA | 0.995
10 | GCTTATTGAC | 1.05
11 | ATGAATCCAT | 0.938
12 | GGGATCGACG | 0.947
13 | GTAGGGAAGC | 1
14 | ATAACCGAGT | 1.07
15 | GCAATTCGTG | 1.12
16 | ATGGGAACT | 0.985
17 | AATTGCCCGG | 1.02
18 | ACTTATCGAG | 1.02
19 | CGAGACTAGC | 1.12
20 | AACGATATTA | 0.991
21 | CTTCGAGTCT | 1.13
22 | CTGATTACTG | 1.01
23 | AGTAAGAGTA | 0.971
24 | GATCGCGGGG | 1.04
25 | AGGGCCTAAC | 1.01
26 | ATTCGATTCT | 1

Row | Sequence | switch fluorescence ratio
27 | CACGATTTC | 1.05
28 | CGAACAGCAG | 1.15
29 | AGGCGACTTT | 0.992
30 | ACCGTGGCAC | 1.06
31 | ATTATTTAGA | 0.998
32 | CCCGTGGCTT | 1.66
33 | AAGGCGGGCA | 1.03
34 | ACTTGTACCA | 1.2
35 | TCACTCCATC | 1.06
36 | TGCACCAACT | 1.98
37 | TATACTTGTG | 0.991
38 | TGCCAGTACC | 1
39 | TTAGGACGTG | 1.05
40 | TGTTGGA | 1
41 | GGTTGTGAGC | 0.969
42 | ATGAAAGGAA | 1
43 | ACTTCGTTCA | 1.03
44 | TTTATTGGCC | 0.998
45 | CTTGCCTTGA | 1
46 | GATTTGTGGT | 0.966
47 | GGATTCAGCG | 0.958
48 | TTCACAAAAG | 0.939
49 | CCTAGGCCCA | 1.07
50 | GTAGTCGCG | 1.05
51 | CATATGACAG | 0.936
52 | GATCAAGCAA | 1.64

Row | Sequence | switch fluorescence ratio
53 | GGAATCCTAT | 1.02
54 | CTCAGGACTT | 1.04
55 | GTTCGATGCA | 1.03
56 | TAAGACGCTT | 1.07
57 | CAGGTACCTT | 1.01
58 | GTTGTGCT | 0.969
59 | AACGTCGTTA | 0.979
60 | CCAGGGAGTT | 1.09
61 | CATCTAGAGG | 1.01
62 | GTTTGCGGAG | 0.987
63 | AATATTTCAG | 0.978
64 | ACATCCTCCT | 1.23
65 | AGGGTTCAGC | 0.991
66 | CACGATGTTA | 0.97
67 | TCGGTAAGTC | 0.98
68 | GGGTGTTATT | 0.992
69 | CGGGGTGAC | 0.983
70 | TGCATTTGAG | 1.01
71 | AATGCTGCCG | 0.982
72 | CGCGGTGATT | 1
73 | TTTAGCGGGA | 0.993
74 | TGGAACGTGT | 1.01
75 | TCGCGTTTGG | 1
76 | GCACACCCGT | 1.14
77 | TGTGGGCCTC | 1.06
78 | GGGCTTCTAA | 0.966

Row | Sequence | switch fluorescence ratio
79 | AGGTCCAGTG | 1.07
80 | TATCGTTGCT | 0.944
81 | GCATACCGAA | 1.03
82 | GGTAAGTATT | 1.02
83 | AAAAATATAG | 1.05
84 | TATAGAACTA | 1.02
85 | AATTGCGGAA | 0.974
86 | CGCCGGCGTC | 0.979
87 | GGAAGATGCC | 1.01
88 | TCCGATTAGC | 1.49
89 | GAAACGACCG | 1.02
90 | TCTGGATTCT | 1.01
91 | GCACACGTTG | 1.02
92 | AATATCCGAG | 1.04
93 | AGGAGCATGT | 1
94 | GTAGCCGCAT | 1.07
95 | TCGACCGTCT | 1.07
96 | TGGTTTCAAC | 1.07
97 | ACGCTTATGG | 1.12
98 | CGGTGTTCTA | 0.995
99 | CACATGGCGG | 0.967
100 | ACGGTTCAGT | 0.996
101 | AAGCGAAAGT | 1.01
102 | TGCCGAGTAC | 1.11
103 | CGAACTATTC | 1.06
104 | TATCTAGATG | 1.02

Row | Sequence | switch fluorescence ratio
105 | CGTAATCTCG | 1.12
106 | TCATGAGGAT | 1.01
107 | TGCGGACGTC | 0.925
108 | GCATTATCTG | 1
109 | GCGTTAGTCA | 1.01
110 | GTAGATGGGA | 1.02
111 | CTATCCGACA | 1.26
112 | CGGGGTCAGA | 0.972
113 | AGTCGACTC | 1.01
114 | TTCGCATATA | 1.19
115 | TAAAGTCGAT | 0.985
116 | TTTGGCGGTA | 0.981
117 | ATAACTACCA | 1.06
118 | ACTGTGCAT | 1.27
119 | GAACTGCAAT | 1.75
120 | AGTGAAACCT | 2.62
121 | CTTAGCAGTG | 1.03
122 | CTACATGCTA | 1.02
123 | CTTATAGCA | 1.2
124 | ACGCGTAGGC | 1.09
125 | ACTACAGTGA | 1.04
126 | AAGCGTGCAC | 0.982
127 | ATATGTCTCA | 0.989
128 | TGCTCCAAAA | 1.35
129 | ACGCGTCAT | 0.968
130 | TCCGTGTTTG | 0.987

Row | Sequence | switch fluorescence ratio
131 | GAATGAAAGA | 1.06
132 | TAGTCGCTGG | 1.05
133 | ATTTGCACCG | 1.07
134 | GGTACAAGGG | 0.976
135 | TGGAGGTTGC | 1.01
136 | TATGGTTCCA | 1.02
137 | TTGAGTGAGT | 0.973
138 | GTTTATACGT | 1.03
139 | TATACTTATT | 1.05
140 | TCGGACAGCG | 1.02
141 | CAACCAAGAA | 1.1
142 | GGCATGAGTG | 1.01
143 | CTGGCTTAAA | 1.02
144 | TGGCGAGGTA | 1.01
145 | CCGGGGTAGT | 2.23
146 | GCGAGAGAGA | 1.02
147 | CAAGACTCTC | 1.15
148 | GGGCTAGGCG | 1.01
149 | CGTGAGGGAT | 1.01
150 | GGCCGGGGG | 0.975
151 | GTGTAATCCC | 0.991
152 | CTGAAATGGG | 1
153 | TTGCAAACCG | 1.07
